About 6,000 (1.7%) of roughly 360,000 compounds were called active. Inconclusive means that the source gave no clear call. Such entries were picked first, then a sample of the others. The call rests on the fitted dose curve; in most records, active means well fitted cell-killing curve with a large enough effect; inconclusive means small, poorly fitted or top-dose-only effect, or effect the other way; inactive means flat fitted curve, though single readings scatter. No potency is given beside an inconclusive call; the fits are too rough.
Assay: qHTS for induction of synthetic lethality in tumor cells producing 2HG: qHTS for the HT-1080-NT fibrosarcoma cell line;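 further: NT is the 2HG producing partner of a matched IDH1 knockdown line; nearly all actives have a fitted effect of over 55% in size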;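 on activity, negative = less viability: 0% = DMSO-treated cells and -100% = media-only wells without cells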
Details: HT-1080-NT fibrosarcoma viability, CellTiter-Glo ATP luminescence, 48 h; activity, negative = less viability: at 46.1 µM (top of the series) unless noted
In short: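 Compounds were tested in concentration-response format on HT-1080-NT cells for 48 hours at 37 degrees C. Cell viability came from CellTiter-Glo luminescence; curves were classified by r2, response magnitude and activity.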
Potency means the concentration at half of the fitted maximal effect; tags describe the fitted curve by direction and shape.

Row | Compound | Potency | activity, negative = less viability
1 | O=C(c1ccc(C(F)(F)F)cc1)N1CCC(=O)N(C(COCc2ccc(Cl)cc2)Cc2ccccc2)CC1 (centres undefined) | inconclusive [cytotoxic, partial curve] | 
2 | CCOC(=O)C1CCCN(c2nc(C)nc3c2oc2ccccc23)C1 (centres undefined) | inconclusive [cytotoxic, single point] | 
3 | Cc1noc(C)c1NC(=O)N(C)C[C@@H]1Oc2ncc(C#CC3CC3)cc2C(=O)N([C@@H](C)CO)C[C@@H]1C | inconclusive [rising, single point] | 
4 | C=CCNCCCCOc1ccccc1-c1ccccc1 | inconclusive [cytotoxic, partial curve] | 
5 | CCOC(=O)[C@]12CCCC=C1N(Cc1ccc(Cl)cc1Cl)C(=O)[C@H](CC(=O)NCCCCc1ccccc1)C2 | inconclusive [cytotoxic, single point] | 
6 | Cc1ccc(C)c(-c2ccc(=O)n(Cc3cccc(Br)c3)n2)c1 | inconclusive [cytotoxic, single point] | 
7 | COc1ccc(N2CCN(CC(O)COC(c3ccc(F)cc3)c3ccc(F)cc3)CC2)cc1 (centres undefined) | inconclusive [cytotoxic, single point] | 
8 | CCc1ccc(OCC(=O)N2c3ccccc3CCc3ccccc32)cc1 |  | inactive: -14.8%
9 | Cc1nc2ccc(S(=O)(=O)NCC(=O)N(C)Cc3ccccc3)cc2s1 |  | inactive: 22.2%
10 | CCc1ccc(OC(C)C(=O)Nc2ccc(S(=O)(=O)Nc3nccs3)cc2)cc1 (centres undefined) |  | inactive: -11.3%
11 | CCN(c1ccccc1)S(=O)(=O)c1ccc(C(=O)Nc2nnc(-c3ccco3)o2)cc1 | inconclusive [cytotoxic, partial curve, poor fit] | 
12 | Cc1ccc(S(=O)(=O)c2c(N)n(NC(=O)c3ccccc3C)c3nc4ccccc4nc23)cc1 | inconclusive [cytotoxic, single point] | 
13 | CCOC(=O)c1cc(-c2ccccc2C)nn1Cc1cc(CC)no1 | inconclusive [rising, single point] | 
14 | Fc1ccc(NC(=S)Nc2cc(-c3ccccc3)[nH]n2)cc1Cl | inconclusive [cytotoxic, single point] | 
15 | CC1CCN(C(=O)c2ccc3c(c2)NC(=O)/C(=C/c2ccccc2)S3)CC1 | inconclusive [cytotoxic, single point] | 
16 | Cc1ccc2c(C)c(C(=O)N3CCN(c4ccncc4)CC3)oc2c1C | inconclusive [cytotoxic, single point] | 
17 | O=c1[nH]c(C2CCCN(S(=O)(=O)c3cccc(F)c3)C2)nc2c1nnn2Cc1ccccc1 (centres undefined) |  | inconclusive: -31.3% [cytotoxic]

Row | Compound | Potency | activity, negative = less viability
18 | CCOC(=O)N1CCN(C(=O)/C=C/c2ccc(OC)cc2)CC1 |  | inactive: 9.1%
19 | COc1ccc(-c2cc(C(=O)Nc3ccc(O)cc3)c3ccccc3n2)cc1OC | inconclusive [cytotoxic, single point] | 
20 | CC(OC(=O)c1ccc2c(=O)n3c(nc2c1)CCC3)C(=O)NC1CCCCC1C (centres undefined) |  | inactive: -0.0895%
21 | CC(C)[C@H](NS(=O)(=O)c1ccccc1)C(=O)OCC(=O)N1N=C(c2ccc(Cl)cc2)CC1c1ccco1 (some centres undefined) | inconclusive [cytotoxic, partial curve] | 
22 | Cc1ccc(OCCn2c(Br)nc3c2c(=O)n(C)c(=O)n3C)cc1 |  | inactive: -0.372%
23 | CC(=O)NC1=C(Nc2ccc(N(C)C)cc2)C(=O)c2ccccc2C1=O | inconclusive [cytotoxic, partial curve] | 
24 | Cc1cccc(-n2c(C)cc(C(=S)N3CCOCC3)c2C)c1C |  | inactive: 7.66%
25 | COc1ccc(NCC(O)COc2ccc(C(C)(C)C)cc2)cc1 (centres undefined) | inconclusive [cytotoxic, single point] | 
26 | CCCCCCN1CCN(C2CN(Cc3cn(Cc4cccc(C(F)(F)F)c4)nn3)S(=O)(=O)C2)CC1 (centres undefined) | inconclusive [cytotoxic, single point] | 
27 | O=C(Nn1c(C2CCCCC2)nc2ccccc2c1=O)c1ccc([N+](=O)[O-])cc1Cl | inconclusive [cytotoxic, single point] | 
28 | CN(C)CCN(Cc1ccccc1)S(=O)(=O)c1ccc(-c2ccc(=O)[nH]n2)s1 |  | inactive: -18.3%
29 | COc1ccc(/C=C/C(=O)c2ccc(NC(=O)c3cccs3)cc2)cc1OC | inconclusive [cytotoxic, single point] | 
30 | Cc1cc(C)nc(SCc2nnc(SCC(=O)Nc3nc(-c4ccccc4)cs3)n2C)n1 |  | inactive: -6.34%
31 | Cc1ccc(S(=O)(=O)Nc2ccc(-n3c(C)nc4ccccc4c3=O)cc2)cc1 |  | inactive: -10.2%
32 | COc1cccc(OC)c1OCCCCN1CCC(Cc2ccccc2)CC1 | inconclusive [cytotoxic, partial curve] | 
33 | COc1cccc(-n2nc(C#N)c(Cl)cc2=O)c1 | active: 9.2 µM | 
34 | CCC(C)C(=O)Nc1cc(C(=O)OC)ccc1C(=O)OC (centres undefined) | inconclusive [cytotoxic, partial curve, poor fit] | 
